Results taken from PubChem BioAssay AID463173 (ICCB-Longwood Screening Facility, Harvard Medical School, 2010).
In all, about 52,000 compounds went through this assay and about 4,300 (8.3%) were called active. No stated cut-off is given here; in the data, active means survival mostly below about 52% (no sharp cut-off); inactive means mostly above about 56%. The list shows a part of the results.

These compounds were tested on DeltatarO mutant (assay: S. aureus survival, RN4220 and DeltatarO strains – OD600, teichoic acid synthesis inhibitors, primary screen (AID 463173)). Conditions: S. aureus RN4220 wild type/DeltatarO growth, OD600, 18 h, active compounds read low, screened at 18.75 µg/mL (by protocol).
In the case of `CCCC(O)=NS(=O)(=O)c1ccc(N=NN(C)C)cc1`, the survival is reported as inactive: 94%. `Cc1ccc(NS(=O)(=O)c2ccc(-n3cccn3)cc2)c(Br)c1` was tested, and the survival was inactive: 72%. In the case of `COc1ccc(Nc2nc3ccccc3n3c(N)nnc23)cc1`, the survival is reported as inactive: 79%. For `Cc1ccccc1C(=O)N1CCC(c2nc(-c3ccc(S(=O)(=O)N4CCCC4)cc3)no2)CC1`, the survival was inactive: 102%. `Cc1cc(C)c2nc(N3CCCN(C(=O)c4ccco4)CC3)c(C#N)cc2c1` was tested, and the survival was inactive: 80%. In the case of `Cc1ccsc1CN(Cc1ccco1)c1cnc(S(C)(=O)=O)nc1C(=O)Nc1ccc(Cl)cc1`, the survival is reported as active: 40%. `Cn1c(=O)oc2cc(S(=O)(=O)CCC(=O)NCc3ccc(Cl)cc3)ccc21` was tested, and the survival was inactive: 94%. In the case of `Clc1cccc(Nc2ncnc3c2nc2n3CCCCC2)c1`, the survival is reported as active: 17%. For `CCc1ccc(NC(=O)C2CCN(c3ncccn3)CC2)cc1`, the survival was inactive: 88%. For `CC(C)C(=O)c1cn(CC(=O)NCc2cccs2)c2ccccc12`, the survival was inactive: 88%. `O=C(CCCCCn1c(=O)c2sccc2n(CC(=O)Nc2ccccc2F)c1=O)NCc1ccc2c(c1)OCO2` was tested, and the survival was inactive: 79%. In the case of `CCC(C)OC(=O)/C(C#N)=C/c1ccc(-c2ccc(Br)cc2)o1` (stereo unspecified), the survival is reported as active: 43%. `COc1cc(CN(C(=O)COc2ccccc2)c2ccccn2)cc(OC)c1OC` was tested, and the survival was inactive: 75%. `Cc1ccc(C2CC(=O)Nc3c2c(C)nn3-c2nc(C)cc(C)n2)c(C)c1` (stereo unspecified) was tested, and the survival was inactive: 102%. `COC(=O)c1cc(-c2ccccc2)sc1N` was tested, and the survival was inactive: 103%. For `CCc1ccc(S(=O)(=O)c2nnn3c2nc(N(CC)Cc2ccccc2)c2cc(Cl)ccc23)cc1`, the survival was inactive: 73%. In the case of `Cc1cc2n(n1)CCCN2C(=O)Nc1ccccc1C(F)(F)F`, the survival is reported as inactive: 76%. With `CCCCN(C)C(=O)CCC(=O)NNc1nc2ccccc2c2nc(C)nn12` the survival was inactive: 91%. In the case of `CC1(C)C(=O)NC(=O)N1CN1C(=O)NC(=O)C1(C)C`, the survival is reported as inactive: 58%. For `O=C(NCc1ccco1)c1ccc(S(=O)(=O)NCC2CCCCC2)cc1`, the survival was inactive: 64%. `CCC(Nc1ccc(-c2nc(-c3ccccn3)no2)cc1[N+](=O)[O-])c1ccccc1` (stereo unspecified) was tested, and the survival was active: 41%. With `COc1cc2c(cc1OC)C(COc1cc(C)cc(C)c1)N(C(=O)C(C)(C)C)CC2` (stereo unspecified) the survival was inactive: 78%. In the case of `COc1cc2c(C(=O)N(C)c3cccc(C(F)(F)F)c3)cn(CC(C)C)c(=O)c2cc1OC`, the survival is reported as inactive: 172%. For `Cc1cccc(N2CCn3c2nc2c3c(=O)n(CCCc3ccccc3)c(=O)n2C)c1`, the survival was inactive: 76%. With `Cc1oc(-c2cccc(Cl)c2)nc1Cn1c(SCc2ccc(F)cc2)nc2cccnc21` the survival was inactive: 85%. With `Cc1ccc(C(c2sc3nc(-c4ccco4)nn3c2O)N2CCN(c3ccc(F)cc3)CC2)cc1` (stereo unspecified) the survival was inactive: 94%. `NC(=O)c1ccc(NC(=O)c2ccccc2C(=O)O)cc1` was tested, and the survival was inactive: 74%. `Cc1ccc(C(=O)COC(=O)CCC(=O)Nc2ccc(Oc3ccccc3)cc2)cc1` was tested, and the survival was inactive: 82%. `COc1ccc(Cn2c(=O)c3oc4ccccc4c3n(CC(=O)Nc3c(C)cccc3C)c2=O)cc1` was tested, and the survival was inactive: 85%. For `Cc1oc2cc3oc(=O)c(CCC(=O)NCCc4ccccc4F)c(C)c3cc2c1C`, the survival was inactive: 94%. `COc1ccc(-c2nc3c(c(SCc4ccc(Br)cc4)n2)Cc2c(CO)cnc(C)c2O3)cc1` was tested, and the survival was inactive: 89%. `Cc1ccc(OCCSc2nnc(-c3cccs3)o2)cc1` was tested, and the survival was inactive: 53%. In the case of `Cc1ccc(-n2ncc(C(=O)NCc3ccc4c(c3)OCO4)c2C2CCN(C(=O)OC(C)(C)C)CC2)c(C)c1`, the survival is reported as inactive: 92%. `CN1CCN(c2nc(C#N)c(C#N)nc2C(C#N)=C2Nc3ccccc3N2)CC1` was tested, and the survival was inactive: 97%. In the case of `COC(=O)c1ccc(NC(=O)c2cc(S(=O)(=O)N3CCOCC3)cn2C)cc1`, the survival is reported as inactive: 89%. In the case of `Cc1ccccc1OCC(=O)Nc1ccc(S(=O)(=O)N(Cc2ccccc2)c2ccccc2)cc1`, the survival is reported as inactive: 66%. `COc1ccc(CCNC(=O)CSc2cn(CCNC(=O)c3c(F)cccc3F)c3ccccc23)cc1OC` was tested, and the survival was inactive: 79%. `CN(C)c1ccc(NC(=O)Cn2c(SCc3ccc(F)cc3)nc3ccncc32)cc1` was tested, and the survival was inactive: 72%. For `Cc1ccc2c(=O)cc(C(=O)N(Cc3ccc(C(C)(C)C)cc3)C3CCS(=O)(=O)C3)oc2c1` (stereo unspecified), the survival was active: 35%. In the case of `Cc1ccc(NC(=O)c2c(C)oc3ccc(O)c(CN4CCOCC4)c23)cc1`, the survival is reported as inactive: 78%. With `COc1cccc(NC(=O)CCN2CC(C)CC(C)C2)c1` (stereo unspecified) the survival was inactive: 90%. With `CNC(=S)N1CCN(c2nc3ccccc3s2)CC1` the survival was inactive: 73%. `CCC(=O)N1c2ccccc2CC1C(=O)NCc1ccc(CC)cc1` (stereo unspecified) was tested, and the survival was inactive: 100%. In the case of `Cc1ccc2c(c1)c1c(c(=O)n(-c3ccccc3)c(=O)n1Cc1ccccc1C)n2C`, the survival is reported as inactive: 71%. `Cc1cc(C)cc(N(CC(=O)NCCc2ccc(Cl)cc2)S(=O)(=O)c2c(C)noc2C)c1` was tested, and the survival was inactive: 95%. With `COc1ccc(NC(=O)Nc2nnc(N3CCCC3)s2)cc1` the survival was inactive: 87%. In the case of `COc1ccc(CNC(=O)CSc2nnc(C)c3c(C)n(-c4ccccc4)nc23)c(OC)c1`, the survival is reported as inactive: 81%. For `O=C(c1cc2c(Cl)nc3ccccc3c2s1)N1CCCCC1`, the survival was active: 46%. `CCOC(=O)/C(C#N)=C\c1ccc(N(C)C)cc1` was tested, and the survival was inactive: 99%. In the case of `Oc1ccc(-c2nc3ccc(Cl)cn3c2Nc2ccc(Cl)cc2)cc1`, the survival is reported as active: 16%. `COc1ccc(Cn2ccc3nc(C)c(C(=O)NCc4ccc(SC)cc4)cc3c2=O)cc1` was tested, and the survival was inactive: 70%. `Cc1ccc(CNS(=O)(=O)c2cnc(N)nc2)cc1` was tested, and the survival was inactive: 72%. In the case of `Cc1ccccc1NC(=O)Cn1nc(-c2ccccc2)nc(Cc2ccccc2)c1=O`, the survival is reported as inactive: 75%. `Cc1ccc(NC(=O)c2ccc(CN3CC(=O)N4CCCCC4C3=O)cc2)c(Cl)c1` (stereo unspecified) was tested, and the survival was inactive: 118%. `CN1CCN(C(=O)c2ccc3c(c2)N(Cc2ccc(C(F)(F)F)cc2)C(=O)c2ccccc2S3)CC1` was tested, and the survival was inactive: 83%. For `CN(CC(=O)Nc1cccc(F)c1)S(=O)(=O)c1ccc2c(c1)n(C)c(=O)c(=O)n2C`, the survival was inactive: 102%. In the case of `CC(=O)c1cccc(NC(=O)CSc2ncc3c(n2)-c2cc(Cl)ccc2N(Cc2ccccc2)S3(=O)=O)c1`, the survival is reported as inactive: 75%. With `COc1cc(CNC(=O)c2cc3n(n2)CCCN(Cc2cccc(F)c2)C3=O)cc(OC)c1OC` the survival was inactive: 79%. With `O=C(CC(c1cccs1)N1Cc2ccccc2C1=O)Nc1ccc(F)cc1` (stereo unspecified) the survival was inactive: 84%. In the case of `NC(=O)C1CCN(C(=O)CC(c2ccccc2)c2ccccc2)CC1`, the survival is reported as inactive: 81%. `CSc1cccc(NC(=O)c2cc3c(COC(C)=O)cnc(C)c3oc2=O)c1` was tested, and the survival was inactive: 126%. In the case of `COc1ccc(S(=O)(=O)NCc2nc(-c3ccccc3)no2)cc1`, the survival is reported as inactive: 76%. `COc1ccc(Nc2nc(Cl)nc(NCCO)n2)cc1` was tested, and the survival was inactive: 77%. `O=C(CSc1nc2ccccc2n1Cc1cccc(F)c1)NCc1ccccc1` was tested, and the survival was inactive: 84%. With `CCOC(=O)c1sc2ncn(CC(=O)Nc3ccc(OC)c(Cl)c3)c(=O)c2c1C` the survival was inactive: 66%. For `COc1ccc(Br)cc1Cn1nnc(C(=O)Nc2cccc(SC)c2)c1N`, the survival was inactive: 49%. `Cc1ccccc1Cn1c2ccccc2c2cnn(CC(=O)NC3CCCCCC3)c(=O)c21` was tested, and the survival was inactive: 87%. `CC(C)CCNC(=O)Cn1nc(N2CCN(c3ccccc3)CC2)ccc1=O` was tested, and the survival was inactive: 83%. With `CCc1ccc(NC(=O)CSc2nc(C)c(C(=O)Nc3ccccc3)c(-c3ccc(OC)c(OC)c3)c2C#N)cc1` the survival was inactive: 75%. `Cc1cc(Br)ccc1NC(=O)CSc1c2c(nc3ccccc13)CCC2` was tested, and the survival was inactive: 62%. `O=C(CCc1ccccc1)Nc1ccccc1` was tested, and the survival was inactive: 59%. For `CCOc1ccc(CNC(=O)CCc2c(C)nn(-c3ccc(N4CCCCC4)nn3)c2C)cc1`, the survival was inactive: 55%. `CCCC1C2CN(Cc3ccccc3)CC=C2C(C#N)=C(N)C1(C#N)C#N` (stereo unspecified) was tested, and the survival was inactive: 67%. For `CCOc1ccc(CCNC(=O)c2c(C)oc3ncn(CC(C)C)c(=O)c23)cc1OCC`, the survival was inactive: 78%. With `CC(=O)N1CCc2c(sc3c2c(=O)n(-c2ccccc2)c(=O)n3CC(=O)Nc2cc(C)cc(C)c2)C1` the survival was inactive: 68%. For `CCCCCc1ccc(-c2ccc(Br)cc2)nc1`, the survival was active: -4%. For `O=C(NCc1ccccc1F)C(=O)NCC(c1ccc2c(c1)OCO2)N1CCOCC1` (stereo unspecified), the survival was inactive: 79%. `CC1C(C#N)=C(N)OC2=C1C(=O)CCC2` (stereo unspecified) was tested, and the survival was inactive: 105%. `CC1CC(c2ccccc2)n2nc(N)nc2N1` (stereo unspecified) was tested, and the survival was inactive: 101%. In the case of `CSc1ccccc1-c1nnc(NC(=O)c2ccc3c(c2)OCCO3)o1`, the survival is reported as inactive: 119%. For `O=C(NC1CCCCC1)N1CCc2ccccc2C1`, the survival was inactive: 77%. For `Cc1c(C(=O)N2CCCCCC2)c(S(=O)(=O)NCc2ccccc2)c(C)n1C`, the survival was inactive: 77%. With `CSc1ccc(CCNC(=O)c2cc(C)nc3c2c(C)nn3-c2cccc(F)c2)cc1` the survival was inactive: 101%. `COc1ccccc1N1CCN(c2ccc(=O)n(CC(=O)NCc3ccc(F)cc3)n2)CC1` was tested, and the survival was inactive: 102%. In the case of `COc1ccc(NC(=O)c2cc3cc(C)ccc3[nH]2)cc1`, the survival is reported as inactive: 100%. With `CCOc1ccccc1NC(=O)CSc1nc2c(oc3ccccc32)c(=O)n1-c1ccc(F)cc1` the survival was inactive: 74%. In the case of `Cc1nc2ccccc2c(=O)n1CC(=O)N(C1CCCCC1)C1CCCCC1`, the survival is reported as inactive: 87%. For `O=S1(=O)CCC(NNC(=S)Nc2ccccc2)C1` (stereo unspecified), the survival was inactive: 100%. In the case of `COc1cccc(CSc2nc3n(n2)C(c2ccc(C(=O)O)cc2)C(C(=O)Nc2ccccc2)=C(C)N3)c1` (stereo unspecified), the survival is reported as inactive: 95%. With `O=C(OCc1cc(=O)n2nc(-c3cccs3)sc2n1)c1ccccc1Cl` the survival was inactive: 72%. `Cc1cc2c(cc1S(=O)(=O)Nc1cccc(Cl)c1C)n(C)c(=O)c(=O)n2C` was tested, and the survival was inactive: 76%.
